Test results: PubChem BioAssay AID504333 (National Center for Advancing Translational Sciences (NCATS), 2011)
In all, about 360,000 compounds went through this assay and about 16,000 (4.4%) were called active. The inconclusive results got no clear call from the source; some entries with a clear call stand among them for comparison. Calls come from the whole dose curve; as a rule, active = well fitted inhibition curve with a large enough effect; inconclusive = small, poorly fitted or top-dose-only effect; inactive = no such curve, though single readings can be large or run the other way. Potencies of inconclusive entries are doubtful fits and often do not repeat.

The compounds below were run against Bromodomain adjacent to zinc finger domain protein 2B (Homo sapiens) (UniProt Q9UIF8) (assay: qHTS Assay for Inhibitors of BAZ2B). Conditions: AlphaScreen BAZ2B-H3K14Ac peptide displacement; series mostly up to 114 µM.
Outline: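 AlphaScreen displacement of biotin-H3(5-23)K14Ac peptide (50 nM final) from BAZ2B (50 nM final) in PBS pH 7.4, 0.01% Tween-20; complex preformed 30 min RT, then compounds (top 110 uM) 30 min RT, beads 20 min dark.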
Note: nearly all actives have a fitted effect of over 60% in size.
Potency is the fitted concentration of half-maximal effect; tags give direction and shape of the fitted curve.

Sequence of UniProt Q9UIF8 (Q9UIF8 whole entry, looked up, the tested form may be a part): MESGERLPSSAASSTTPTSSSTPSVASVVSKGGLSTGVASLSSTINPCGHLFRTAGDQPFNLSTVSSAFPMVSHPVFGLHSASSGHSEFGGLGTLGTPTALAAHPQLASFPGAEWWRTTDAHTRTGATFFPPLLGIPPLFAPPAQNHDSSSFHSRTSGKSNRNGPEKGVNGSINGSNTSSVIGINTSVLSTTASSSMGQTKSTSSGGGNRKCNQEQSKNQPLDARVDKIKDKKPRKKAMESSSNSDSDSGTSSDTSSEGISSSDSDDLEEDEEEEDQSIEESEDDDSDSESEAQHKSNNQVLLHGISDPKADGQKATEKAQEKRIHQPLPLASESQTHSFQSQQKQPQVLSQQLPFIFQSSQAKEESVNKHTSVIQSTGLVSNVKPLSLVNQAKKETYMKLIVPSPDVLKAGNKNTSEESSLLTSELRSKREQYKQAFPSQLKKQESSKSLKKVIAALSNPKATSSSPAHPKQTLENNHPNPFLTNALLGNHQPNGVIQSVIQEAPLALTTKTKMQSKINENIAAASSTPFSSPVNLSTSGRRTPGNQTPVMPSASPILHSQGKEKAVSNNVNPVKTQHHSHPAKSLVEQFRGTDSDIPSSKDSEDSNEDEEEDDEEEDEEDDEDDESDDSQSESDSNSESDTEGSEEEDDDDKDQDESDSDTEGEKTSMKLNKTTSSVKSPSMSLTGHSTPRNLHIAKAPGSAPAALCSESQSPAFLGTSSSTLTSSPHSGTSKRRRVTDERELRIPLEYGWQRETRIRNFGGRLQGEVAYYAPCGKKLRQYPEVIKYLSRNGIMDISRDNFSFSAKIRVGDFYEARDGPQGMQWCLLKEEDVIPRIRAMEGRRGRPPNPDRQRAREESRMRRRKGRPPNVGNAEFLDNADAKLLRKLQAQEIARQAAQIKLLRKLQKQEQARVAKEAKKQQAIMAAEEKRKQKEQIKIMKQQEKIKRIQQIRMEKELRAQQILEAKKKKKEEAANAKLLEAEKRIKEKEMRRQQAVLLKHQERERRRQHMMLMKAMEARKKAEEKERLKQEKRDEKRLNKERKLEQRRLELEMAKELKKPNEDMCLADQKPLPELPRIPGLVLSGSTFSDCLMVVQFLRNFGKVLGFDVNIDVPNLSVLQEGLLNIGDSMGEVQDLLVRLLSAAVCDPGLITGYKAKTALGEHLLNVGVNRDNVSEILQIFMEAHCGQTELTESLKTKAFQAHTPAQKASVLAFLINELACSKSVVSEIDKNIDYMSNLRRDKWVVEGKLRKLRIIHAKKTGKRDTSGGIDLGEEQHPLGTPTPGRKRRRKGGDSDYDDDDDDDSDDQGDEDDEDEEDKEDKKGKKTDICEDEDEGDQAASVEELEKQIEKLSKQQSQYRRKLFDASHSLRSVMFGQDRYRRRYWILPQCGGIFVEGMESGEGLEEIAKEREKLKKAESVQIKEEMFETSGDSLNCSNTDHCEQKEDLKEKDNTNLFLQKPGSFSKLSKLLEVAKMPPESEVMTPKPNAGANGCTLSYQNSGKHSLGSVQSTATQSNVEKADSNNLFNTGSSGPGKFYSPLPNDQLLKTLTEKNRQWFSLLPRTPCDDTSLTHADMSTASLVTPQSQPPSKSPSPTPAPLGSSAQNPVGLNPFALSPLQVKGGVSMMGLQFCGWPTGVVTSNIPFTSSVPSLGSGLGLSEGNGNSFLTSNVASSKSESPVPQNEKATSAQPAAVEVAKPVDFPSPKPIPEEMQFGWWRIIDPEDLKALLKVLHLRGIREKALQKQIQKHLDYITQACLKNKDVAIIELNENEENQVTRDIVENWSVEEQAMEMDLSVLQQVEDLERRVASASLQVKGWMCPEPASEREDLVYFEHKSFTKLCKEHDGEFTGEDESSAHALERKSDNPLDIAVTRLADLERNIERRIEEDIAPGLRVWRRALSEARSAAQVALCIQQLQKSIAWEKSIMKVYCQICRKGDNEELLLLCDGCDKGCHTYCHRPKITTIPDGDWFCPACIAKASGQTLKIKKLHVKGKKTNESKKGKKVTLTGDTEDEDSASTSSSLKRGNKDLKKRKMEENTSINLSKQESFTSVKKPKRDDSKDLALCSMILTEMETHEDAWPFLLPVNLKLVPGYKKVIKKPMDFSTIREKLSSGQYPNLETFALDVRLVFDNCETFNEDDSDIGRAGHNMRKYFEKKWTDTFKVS

| SMILES | Potency |
| --- | --- |
| COc1ccc(N2C(=O)CN=C2Nc2nc(C)cc(C)n2)cc1 | inactive |
| CC(C)Cn1c(-c2ccc(S(=O)(=O)N3CCCC3)cc2)csc1=Nc1ccccc1 | inconclusive: 3.16 µM [inhibitor, full curve] |
| Cc1ccc2nc(/C(C#N)=C\c3cc(O)ccc3[N+](=O)[O-])[nH]c2c1 | inconclusive: 56.2 µM [inhibitor, partial curve] |
| Cc1ccc(C(=O)N/C(=C\c2ccc(F)cc2)C(=O)NCCCn2ccnc2)cc1 | active: 79.4 µM |
| COC(=O)c1c(NC(=O)C2SC(=NC3CCCCC3)C(C(N)=O)=C2N)sc2c1CCCC2 (configuration not stated) | inconclusive: 79.4 µM [inhibitor, single point] |
| CC(C)(C)c1ccc2c(c1)C(=O)c1ccccc1C2=O | active: 31.6 µM |
| Cc1nc2sccn2c(=O)c1S(=O)(=O)N1CCN(c2ccc(F)cc2)CC1 | inactive |
| Cc1cc(/C=C2\SC(=S)NC2=O)c(C)n1-c1ccccc1 | inconclusive: 56.2 µM [inhibitor, partial curve] |
| N/C(=N\N=C\c1ccc(O)c(O)c1)c1nonc1N | active: 44.7 µM |
| O=C(Nc1ccncc1)c1ccccc1F | inactive |
| CN(C)c1ccc(C(=O)Nc2nc3c(s2)CCCC3)cc1 | inconclusive: 14.1 µM [inhibitor, single point] |
| COc1ccc2[nH]c(=O)c3c(c2c1)OC(C)(C)C=C3 | inconclusive: 89.1 µM [inhibitor, single point] |
| O=C1c2c(O)cccc2Cc2cccc(O)c21 | inconclusive: 79.4 µM [inhibitor, single point] |
| Cc1nn(-c2ccccc2)c(C)c1C(=O)NCc1ccc(S(N)(=O)=O)cc1 | inactive |
| CCCCCNC(=O)c1cccc(S(=O)(=O)N2CC3(C)CC2CC(C)(C)C3)c1 (configuration not stated) | inactive |
| COc1ccc(OC)c(NC(=O)c2ccc3c(c2)CCN3S(C)(=O)=O)c1 | inconclusive: 89.1 µM [inhibitor, single point] |
| CCOC(=O)c1ccccc1-c1csc(NS(=O)(=O)c2ccc(Cl)cc2)n1 | active: 56.2 µM |
| CCc1c(C)nc2[nH]nc(NC(=O)C(F)(F)F)n2c1=O | inconclusive: 89.1 µM [inhibitor, single point] |
| O=C(CC(C(=O)N1CCc2ccccc21)n1ccnc1)NCc1cccnc1 (configuration not stated) | inconclusive: 89.1 µM [inhibitor, single point] |
| CCOc1cc(-c2ccc(OC(=O)c3ccc(Cl)cc3)c(OC)c2)cc(=O)c2c(C)oc(C)c12 | inconclusive: 70.8 µM [inhibitor, single point] |
| Oc1c(C(c2ccc(Cl)cc2)N2CCCC2)sc2nc(-c3ccco3)nn12 (configuration not stated) | inconclusive: 70.8 µM [inhibitor, single point] |
| CCOc1ccccc1C(=O)NCC(c1ccc(N(C)C)cc1)N1CCc2ccccc21 (configuration not stated) | active: 5.62 µM |
| CCN(CC)c1ccc(/C=N/N2CCN(Cc3ccc(C)cc3C)CC2)c(O)c1 | active: 10 µM |
| CCn1c(SCc2cccc(OC)c2)nc2ccccc2c1=O | inactive |

| SMILES | Potency |
| --- | --- |
| Cc1ccc(C)n1-c1ccc(C(=O)NCC2CCCO2)cc1 (configuration not stated) | inconclusive: 79.4 µM [inhibitor, single point] |
| CC(C)[N+]1=C2C=CC=CC=C2SC12C([N+](=O)[O-])=CC(=[N+]([O-])[O-])C=C2[N+](=O)[O-] (configuration not stated) | inconclusive: 70.8 µM [inhibitor, single point] |
| C/C(=N\N1C(=O)c2ccccc2NC1c1ccco1)c1ccccc1O (configuration not stated) | active: 70.8 µM |
| Cc1ccc(S(=O)(=O)Nc2cccc(C(=O)NCc3ccc(S(N)(=O)=O)cc3)c2)cc1 | inactive |
| CCN(CC)CCCNC(=S)N(Cc1cccs1)Cc1cc2cc3c(cc2[nH]c1=O)OCCO3 | inconclusive: 79.4 µM [inhibitor, single point] |
| COc1cc(S(=O)(=O)NCc2ccncc2)ccc1Br | inactive |
| Oc1[nH]c2ccccc2c1C=Nc1ccccc1 | inactive |
| Cc1cc(C(=O)CC#N)c(C)n1CC(F)(F)F | inconclusive: 100 µM [inhibitor, single point] |
| O=C(CNC(=O)c1ccc(S(=O)(=O)N2CCCC2)cc1)N/N=C/c1ccc(Cl)cc1 | inconclusive: 89.1 µM [inhibitor, single point] |
| NS(=O)(=O)c1cccc(NC(=O)CCCNC(=O)c2ccc(Cl)cc2)c1 | inactive |
| Cc1ccc(-n2ncc3c(NCCCn4ccnc4)ncnc32)cc1 | inconclusive: 25.1 µM [inhibitor, full curve] |
| O=C(Oc1ccccc1)c1ccc2nsnc2c1 | active: 50.1 µM |
| CC(C)=CC(=O)Nc1nnc(C(C)C)s1 | inactive |
| Cc1ccc(-n2nc3ccc(NC(=O)/C=C/c4ccco4)cc3n2)cc1 | inconclusive: 89.1 µM [inhibitor, single point] |
| Cn1c(CCN2CCN(c3ccccn3)CC2)nc2cc(NS(=O)(=O)c3ccc(Cl)cc3)ccc21 | inconclusive: 20 µM [inhibitor, full curve] |
| Cn1nc(C(F)(F)F)c(-c2cccc(C(F)(F)F)c2)c1NC(=O)c1nccnc1C(=O)O | inconclusive: 89.1 µM [inhibitor, single point] |
| COc1ccc(-c2c(C)nn3c(-c4ccccc4)cc(-c4ccccc4)nc23)cc1 | inactive |
| CC[C@H](C)[C@@H](C(=O)N1CCNCC1)n1cc([C@@H](N)CO)nn1 | inconclusive: 89.1 µM [inhibitor, single point] |
| Nc1n[nH]c(-c2ccc(F)cc2)n1 | inconclusive: 79.4 µM [inhibitor, single point] |
| COc1ccc(-c2nnc(SCC(=O)NCCc3ccccc3)nc2-c2ccc(OC)cc2)cc1 | inactive |
| CCCOc1c(Br)cc(C(N)=O)cc1OCC | inconclusive: 79.4 µM [inhibitor, single point] |
| Cc1cc(Br)ccc1-n1[nH]c(C)c(C=Nc2cccc3nsnc23)c1=O | inconclusive: 20 µM [inhibitor, full curve] |
| COc1cccc(C(=O)/C=C/c2ccc(OCC#N)c(OC)c2)c1 | inactive |
| CCCn1cc(SCC(=O)Nc2ccc3c(c2)OCO3)c2ccccc21 | inconclusive: 70.8 µM [inhibitor, single point] |

| SMILES | Potency |
| --- | --- |
| S=C(NCCc1ccccc1)Nc1ccc(Br)cn1 | inconclusive: 70.8 µM [inhibitor, single point] |
| COc1cccc(Cn2c(=O)n(CC3CCC(C(=O)N4CCOCC4)CC3)c(=O)c3sccc32)c1 (configuration not stated) | inactive |
| COc1ccc2nc(N3CCN(C(=O)c4ccc5ncsc5c4)CC3)sc2c1 | inactive |
| COC(=O)c1c(C)[nH]c(C(=O)COC(=O)Cn2cc(C(F)(F)F)ccc2=O)c1C | inactive |
| CN1CCC(N(C)CC(=O)Nc2ccc3c(c2)OC(F)(F)O3)CC1 | active: 44.7 µM |
| COc1ccc2nc3cc(Cl)ccc3c(Nc3cc(C(C)C)c(O)cc3C)c2c1 | inconclusive: 8.91 µM [inhibitor, full curve] |
| C#CCOCCOCCOCCNc1nc(N2CCOCC2)nc(N2CCN(C(=O)CCCCCCCCCCNC(=O)[C@H]([C@@H](C)CC)n3cc(CCCCN=C(N)N)nn3)CC2)n1 | inconclusive: 89.1 µM [inhibitor, single point] |
| Nc1cc([N+](=O)[O-])ccc1Nc1ccc(O)cc1 | active: 31.6 µM |
| Cc1cccc(C)c1NC(=O)CNC(=O)CNC(=O)Cc1cccc2ccccc12 | inactive |
| CCOC(=O)N1CCN(Cc2cn[nH]c2-c2ccc(-c3ccccc3)cc2)CC1 | inconclusive: 20 µM [inhibitor, full curve] |
| CCNC(=S)N1CCn2cccc2C1c1ccc(F)cc1 (configuration not stated) | inconclusive: 44.7 µM [inhibitor, partial curve] |
| N=c1c(-c2nc3ccccc3[nH]2)cc(C(=O)c2ccco2)nn1-c1ccccc1 | inconclusive: 3.16 µM [inhibitor, full curve] |
| CCCCNc1cc(N2CCN(C3CCCCC3)CC2)c2noc3c2c1C(=O)c1ccccc1-3 | active: 5.01 µM |
| CC1CCN(CC(=O)Nc2ccc(C(=O)N3CCCCC3)cc2)CC1 | active: 50.1 µM |
| COCCNC(=O)/C(C#N)=C/C=C/c1ccccc1 | inactive |
| CCCC(c1nnnn1Cc1ccco1)N1CCN(C2CCCC2)CC1 (configuration not stated) | inconclusive: 89.1 µM [inhibitor, single point] |
| COc1ccc(/C=N/N(C)c2cc(=O)n(C)c(=O)[nH]2)cc1OC | active: 79.4 µM |
| CCCCN(CC)S(=O)(=O)c1ccc(C(=O)Nc2nnc(-c3cccs3)o2)cc1 | inconclusive: 8.91 µM [inhibitor, single point] |
| CC(=O)c1ccc(NC(=S)NCCc2cccc(Cl)c2)cc1 | inconclusive: 35.5 µM [inhibitor, partial curve] |
| CC(C)C(=O)N(Cc1ccc2c(c1)OCO2)Cc1ccccn1 | inconclusive: 89.1 µM [inhibitor, single point] |
| CN(C)CCCN(C(=O)c1ccc(S(=O)(=O)N2CCc3ccccc32)cc1)c1nc2ccc(Cl)cc2s1 | inconclusive: 44.7 µM [inhibitor, partial curve] |
| CN(C)c1cccc(C(=O)OCC(=O)Nc2nccs2)c1 | inconclusive: 70.8 µM [inhibitor, single point] |
| N#CC1=C(N)OC2=C(CC/C2=C\c2ccccc2Cl)C1c1ccccc1Cl (configuration not stated) | inconclusive: 70.8 µM [inhibitor, single point] |
| Cc1ccc(Cn2nnc3c(=O)[nH]c(C4CCCN(S(=O)(=O)c5ccccc5)C4)nc32)cc1 (configuration not stated) | inconclusive: 35.5 µM [inhibitor, single point] |
